# Assay results as given in the antibiotic and cytotoxicity screens of Wong et al. (2023).
# The other results are listed elsewhere or left out.
# Assays:
# HSkMC = human skeletal muscle cells; test: cytotoxicity call (relative viability < 0.9); conditions: 10 µM
# HepG2 = test: cytotoxicity call (relative viability < 0.9); conditions: 10 µM
# S. aureus RN4220 = test: growth inhibition call (relative growth <= 0.2); conditions: 50 µM
SMILES,cytotoxicity call (HSkMC),cytotoxicity call (HepG2),growth inhibition call (S. aureus RN4220)
C=CC(=O)Nc1cccc([C@@H](CCc2ccc(OC)c(OC)c2)OC(=O)[C@@H]2CCCCN2C(=O)C(=O)C(C)(C)CC)c1,inactive,inactive,inactive
C[C@H]1CCCCO[C@H](CN(C)Cc2ccc(C(F)(F)F)cc2)[C@@H](C)CN([C@@H](C)CO)C(=O)c2cc(NC(=O)Cc3ccccc3)ccc2O1,inactive,active,inactive
C[C@@H]1CN([C@@H](C)CO)C(=O)c2cc(NC(=O)Nc3cccc4ccccc34)ccc2O[C@@H](C)CCCCO[C@H]1CN(C)Cc1ccc(C(F)(F)F)cc1,inactive,inactive,inactive
C[C@@H]1CN([C@@H](C)CO)C(=O)c2cc(C#CC3(O)CCCC3)cnc2O[C@@H]1CN(C)S(=O)(=O)c1cccc(F)c1,inactive,inactive,inactive
O=S(=O)(NCC[C@@H]1CC[C@H](NS(=O)(=O)c2ccccc2Cl)[C@H](CO)O1)c1ccc(Cl)cc1,inactive,inactive,inactive
Cc1ccc(C(=O)Nc2ccc(S(=O)(=O)[O-])c3cc(S(=O)(=O)[O-])cc(S(=O)(=O)[O-])c23)cc1NC(=O)c1cccc(NC(=O)Nc2cccc(C(=O)Nc3cc(C(=O)Nc4ccc(S(=O)(=O)[O-])c5cc(S(=O)(=O)[O-])cc(S(=O)(=O)[O-])c45)ccc3C)c2)c1.[Na+].[Na+].[Na+].[Na+].[Na+].[Na+],inactive,inactive,inactive
COC(=O)[C@@H](NC(=O)c1cc(C)on1)C(C)C,inactive,inactive,inactive
C[C@H]1CN([C@@H](C)CO)C(=O)c2cc(NC(=O)CCC(F)(F)F)ccc2O[C@H]1CN(C)Cc1ccc(C(=O)Nc2ccccc2N)cc1,inactive,inactive,inactive
C[C@@H]1CN([C@H](C)CO)C(=O)Cc2cc(NS(=O)(=O)c3ccc(Cl)cc3)ccc2O[C@H]1CN(C)S(=O)(=O)c1cn(C)cn1,inactive,inactive,inactive
c1csc(-c2nc3ccc4ccccc4c3c3c2CCC3)c1,inactive,inactive,inactive
CC(=O)OCC(COC(C)=O)OC(C)=O,inactive,inactive,inactive
COc1ccc(CN(C)C[C@@H]2Oc3ccc(NC(=O)Nc4cccc5ccccc45)cc3C(=O)N([C@H](C)CO)C[C@@H]2C)cc1,inactive,inactive,inactive
CC12CCC(=O)C=C1CCC1C2C(=O)CC2(C)C1CCC2(O)C(=O)CO (stereo not given),inactive,inactive,inactive
CC(C)CCCC(C)N (stereo not given),inactive,inactive,inactive
COc1cccc(NC(=O)N(C)C[C@H]2Oc3cc(C#Cc4ccncc4)ccc3S(=O)(=O)N([C@H](C)CO)C[C@H]2C)c1,inactive,active,inactive
C[C@H]1CN([C@@H](C)CO)C(=O)Cc2cc(NC(=O)c3ccncc3)ccc2O[C@H]1CN(C)Cc1ccc(C(=O)O)cc1,inactive,inactive,inactive
C[C@@H]1CCCCO[C@@H](CN(C)Cc2ccc(C(F)(F)F)cc2)[C@H](C)CN([C@@H](C)CO)C(=O)c2cc(NC(=O)NC3CCCCC3)ccc2O1,inactive,active,inactive
O=C1c2c(O)cc(O[C@@H]3O[C@H](CO)[C@@H](O)[C@H](O)[C@@H]3O)cc2O[C@@H](c2ccc(O)cc2)[C@@H]1O,inactive,inactive,inactive
C[C@H](CO)N1C[C@H](C)[C@@H](CN(C)Cc2ccc(-c3ccccc3)cc2)Oc2c(NC(=O)C3CCOCC3)cccc2C1=O,inactive,inactive,inactive
O=C1O[C@H](c2ccccc2)[C@H](c2ccccc2)N2[C@H]1[C@@H](C(=O)O)[C@]1(C(=O)Nc3ccc(C#CC4(O)CCCCCC4)cc31)[C@H]2c1ccc(OCCO)cc1,inactive,inactive,inactive
Cc1nnnn1CC(=O)Nc1ccc(F)cc1,inactive,inactive,inactive
Cc1noc(C)c1NC(=O)Nc1ccc2c(c1)C(=O)N([C@H](C)CO)C[C@H](C)[C@@H](CN(C)Cc1ccc(Cl)c(Cl)c1)O2,inactive,inactive,inactive
C[C@@H]1CN([C@H](C)CO)C(=O)Cc2cc(NS(=O)(=O)c3cn(C)cn3)ccc2O[C@@H]1CN(C)Cc1ccc2c(c1)OCO2,inactive,inactive,inactive
c1ccc([C@@H]2CCC[C@H](c3ccccc3)S2)cc1,inactive,inactive,inactive
C[C@@H]1CCCCO[C@@H](CN(C)Cc2ccccc2)[C@H](C)CN([C@H](C)CO)C(=O)c2cc(NC(=O)Nc3ccccc3)ccc2O1,inactive,active,inactive
C[C@@H]1CCCCO[C@@H](CN(C)C(=O)Nc2ccc(C(F)(F)F)cc2)[C@H](C)CN([C@H](C)CO)C(=O)c2cc(NC(=O)C3CCCCC3)ccc2O1,inactive,inactive,inactive
C[C@H]1CN([C@@H](C)CO)C(=O)c2ccccc2-c2ccccc2CO[C@@H]1CN(C)C(=O)Nc1ccc(-c2ccccc2)cc1,inactive,inactive,inactive
Cc1ccc(S(=O)(=O)N(C)C[C@H]2Oc3c(NC(=O)C4CC4)cccc3C(=O)N([C@H](C)CO)C[C@H]2C)cc1,inactive,inactive,inactive

SMILES,cytotoxicity call (HSkMC),cytotoxicity call (HepG2),growth inhibition call (S. aureus RN4220)
C[C@H]1CN([C@@H](C)CO)C(=O)c2cc(NC(=O)CCCN(C)C)ccc2O[C@H]1CN(C)S(=O)(=O)c1cn(C)cn1,inactive,inactive,inactive
COc1cc2c(cc1OC)-c1onc(-c3ccc(OCCO[Si](C(C)C)(C(C)C)C(C)C)cc3)c1CCCN(C[C@@H](C)O)CC2,inactive,inactive,inactive
COC1=C(O)C(=O)c2c(cc3oc(C(C)=O)c(O)c3c2O)C1=O,inactive,inactive,inactive
N[C@@H](C(=O)N[C@@H]1C(=O)N2C(C(=O)O)=C(Cl)CC[C@H]12)c1ccccc1,inactive,inactive,active
COc1ccc(CN(C)C[C@H]2Oc3ccc(NC(=O)CCN4CCOCC4)cc3C(=O)N([C@H](C)CO)C[C@H]2C)cc1,inactive,inactive,inactive
CC(C)NC(=O)NCC[C@@H]1CC[C@@H](NC(=O)CN(C)C)[C@@H](CO)O1,inactive,inactive,inactive
C[C@@H]1CN([C@@H](C)CO)C(=O)Cc2cc(NS(C)(=O)=O)ccc2O[C@@H]1CN(C)S(=O)(=O)c1cccs1,inactive,inactive,inactive
C[C@H]1CCCCO[C@H](CN(C)Cc2ccccc2)[C@@H](C)CN([C@@H](C)CO)C(=O)c2cc(NC(=O)Nc3ccc(C(F)(F)F)cc3)ccc2O1,active,active,inactive
C[C@@H]1CCCCO[C@@H](CN(C)C(=O)CCC(F)(F)F)[C@@H](C)CN([C@H](C)CO)C(=O)c2cc(NC(=O)CCCCCC(=O)Nc3ccccc3N)ccc2O1,inactive,inactive,inactive
CN1C(=O)c2cc(NS(C)(=O)=O)ccc2OC[C@@H]2O[C@H](CC(=O)N3CCOCC3)CC[C@H]21,inactive,inactive,inactive
C[C@H](CO)N1C[C@H](C)[C@H](CN(C)C(=O)C2CCOCC2)Oc2cc(-c3ccc(F)cc3)ccc2S1(=O)=O,inactive,inactive,inactive
CCOc1nc2ccccc2c(=O)n1CCO,inactive,inactive,inactive
C[C@H](CO)N1C[C@H](C)[C@H](CN(C)Cc2ccc(Oc3ccccc3)cc2)Oc2ccc(NC(=O)Nc3ccc(C(F)(F)F)cc3)cc2CC1=O,active,active,inactive
Cc1cccc(NC(=O)C(=O)NCCCO)c1,inactive,inactive,inactive
C[C@@H]1CCCCO[C@@H](CN(C)C(=O)C2CCCCC2)[C@@H](C)CN([C@@H](C)CO)C(=O)c2cc(NC(=O)Cc3ccccc3)ccc2O1,inactive,inactive,inactive
COc1ccc(NC(=O)N(C)C[C@@H]2Oc3ccc(NC(=O)CCN4CCOCC4)cc3CC(=O)N([C@H](C)CO)C[C@H]2C)cc1,inactive,inactive,inactive
CCS(=O)(=O)N1CC[C@]2(CC1)CN([C@@H](CO)c1[nH]c3cc(ccc3c12)OC)S(=O)(=O)c1ccc(cc1)C,inactive,inactive,inactive
C[C@H]1CN([C@@H](C)CO)C(=O)c2cc(NS(=O)(=O)c3ccccc3)ccc2O[C@@H]1CN(C)S(=O)(=O)c1ccc(F)cc1,inactive,inactive,inactive
Cc1n[nH]c(SCC(=O)O)nc1=O,inactive,inactive,inactive
Cc1ccc(S(=O)(=O)N(C)C[C@@H]2Oc3cc(C#Cc4ccncc4)ccc3S(=O)(=O)N([C@@H](C)CO)C[C@@H]2C)cc1,inactive,active,inactive
CO[C@@H]1CN(C)C(=O)c2ccc(NC(=O)Nc3ccccc3)cc2OC[C@H](C)N(C(=O)CN(C)C)C[C@H]1C,inactive,inactive,inactive
C[C@@H]1CCCCO[C@@H](CN(C)C(=O)Nc2ccccc2)[C@H](C)CN([C@@H](C)CO)C(=O)c2cc(NS(=O)(=O)c3ccccc3)ccc2O1,inactive,inactive,inactive
COc1ccc(NC(=O)Nc2ccc3c(c2)C(=O)N([C@@H](C)CO)C[C@H](C)[C@@H](CN(C)Cc2ccc(Cl)c(Cl)c2)OCCCC[C@@H](C)O3)cc1,inactive,inactive,inactive
COc1ccc(NC(=O)O[C@H]2[C@@H]3OC(=O)[C@@H](Cc4ccc5ccccc5c4)C/C=C/C[C@H](Cc4ccc5ccccc5c4)C(=O)O[C@H]3[C@@H](OC)O[C@@H]2CO)cc1,inactive,active,inactive
C[C@@H]1CN([C@@H](C)CO)C(=O)c2cc(NS(=O)(=O)c3ccc(F)cc3)ccc2O[C@@H](C)CCCCO[C@@H]1CN(C)C(=O)Nc1ccccc1,inactive,inactive,inactive
Cc1cc(C(=O)O)sc1[C@@H](N)C(=O)O,inactive,inactive,inactive
CCOP(=O)(CC(=O)O[C@H]1[C@@H]2OC(=O)[C@@H](Cc3ccc4ccccc4c3)C/C=C\C[C@H](Cc3ccc4ccccc4c3)C(=O)O[C@H]2[C@@H](OC)O[C@@H]1COC(=O)NCCCCCC(=O)NO)OCC,inactive,inactive,inactive
